Among all 220,000 compounds or so, about 5,700 (2.6%) were called active. The shares of active, inactive and inconclusive entries below differ from those in the screen. Calls come from the whole dose curve; as a rule, active = well fitted inhibition curve with a large enough effect; inconclusive = small, poorly fitted or top-dose-only effect; inactive = no such curve, though single readings can be large or run the other way. Potencies beside an inconclusive call are fits to weak or partial responses and may not hold up.
biological target: Lysine-specific demethylase 5B (Homo sapiens) (UniProt Q9UGL1); test: Primary screen for KDM5B Histone Demethylases FDH-coupled qHTS; settings: FDH-coupled NADH fluorescence (FDH is formaldehyde dehydrogenase); activity change, negative = inhibition: at 57.7 µM (top of the series) unless noted; note: nearly all actives have a fitted effect of over 70% in size; for activity change, negative = inhibition: 0% is about no effect
Method in brief: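 Here, H3K4me3 peptide (12.5 µM in substrate mix) is demethylated by KDM5BΔAP, 200 nM final, after 10 min compound exposure. Formaldehyde product is coupled through FDH (0.25 U/mL in mix) to NADH fluorescence; 30-min ΔRFU feeds dose-response curves.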
Potency is the fitted concentration of half-maximal effect; tags give direction and shape of the fitted curve.

UniProt Q9UGL1, sequence (Q9UGL1 whole entry, looked up): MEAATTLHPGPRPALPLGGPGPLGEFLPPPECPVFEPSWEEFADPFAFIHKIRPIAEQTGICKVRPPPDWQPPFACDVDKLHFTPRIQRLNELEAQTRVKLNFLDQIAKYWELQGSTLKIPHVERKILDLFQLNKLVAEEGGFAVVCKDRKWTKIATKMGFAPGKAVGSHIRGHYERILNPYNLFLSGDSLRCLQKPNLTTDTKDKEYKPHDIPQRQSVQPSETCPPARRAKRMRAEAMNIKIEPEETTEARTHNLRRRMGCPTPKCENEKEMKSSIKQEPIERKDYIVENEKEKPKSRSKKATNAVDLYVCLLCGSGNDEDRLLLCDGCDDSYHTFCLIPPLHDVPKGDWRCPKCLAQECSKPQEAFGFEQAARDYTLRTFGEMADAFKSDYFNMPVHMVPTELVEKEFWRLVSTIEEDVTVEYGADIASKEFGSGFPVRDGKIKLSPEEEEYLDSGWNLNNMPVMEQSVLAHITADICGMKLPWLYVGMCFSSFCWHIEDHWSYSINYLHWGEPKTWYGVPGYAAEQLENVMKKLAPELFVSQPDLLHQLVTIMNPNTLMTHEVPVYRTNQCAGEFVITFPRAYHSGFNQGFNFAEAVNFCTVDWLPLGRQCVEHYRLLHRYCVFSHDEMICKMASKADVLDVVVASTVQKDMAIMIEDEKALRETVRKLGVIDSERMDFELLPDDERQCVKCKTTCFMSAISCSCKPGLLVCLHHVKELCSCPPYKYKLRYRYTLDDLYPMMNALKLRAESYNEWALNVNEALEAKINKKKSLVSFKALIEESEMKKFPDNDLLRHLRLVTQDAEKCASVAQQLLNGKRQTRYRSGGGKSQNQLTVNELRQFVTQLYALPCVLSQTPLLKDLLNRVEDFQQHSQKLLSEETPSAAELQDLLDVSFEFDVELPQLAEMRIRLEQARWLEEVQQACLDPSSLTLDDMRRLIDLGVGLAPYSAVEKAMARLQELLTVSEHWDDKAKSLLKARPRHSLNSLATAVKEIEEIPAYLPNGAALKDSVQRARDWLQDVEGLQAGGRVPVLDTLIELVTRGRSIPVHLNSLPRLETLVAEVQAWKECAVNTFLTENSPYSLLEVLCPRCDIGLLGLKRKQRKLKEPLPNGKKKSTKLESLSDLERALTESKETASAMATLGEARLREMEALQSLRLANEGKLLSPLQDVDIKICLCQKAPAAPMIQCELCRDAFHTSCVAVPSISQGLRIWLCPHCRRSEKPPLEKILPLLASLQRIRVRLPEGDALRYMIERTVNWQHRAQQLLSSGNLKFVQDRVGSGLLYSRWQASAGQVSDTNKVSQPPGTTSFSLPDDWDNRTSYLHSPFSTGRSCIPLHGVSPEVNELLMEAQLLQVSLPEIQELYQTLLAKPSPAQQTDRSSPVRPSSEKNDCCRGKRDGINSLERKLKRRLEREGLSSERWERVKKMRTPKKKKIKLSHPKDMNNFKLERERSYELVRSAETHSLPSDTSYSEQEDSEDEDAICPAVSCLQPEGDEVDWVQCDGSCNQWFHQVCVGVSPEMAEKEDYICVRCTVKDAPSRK

Structure (SMILES) | Potency | activity change, negative = inhibition
COc1ccc(OCC2(C)COc3ccc(C(=O)NC4CCC(O)CC4)cc3N2)cc1 (configuration not stated) | active: 31.6 µM | 
O=C(CC1CCCN(c2cnn(CC3CC3)c(=O)c2)C1)NCCN1CCCC1 (configuration not stated) | inactive | 
O=C(CSc1nnc(-c2ccncc2)n1C1CC1)c1cc2ccccc2o1 | inconclusive: 28.2 µM [inhibitor, single point] | 
Cc1cn2c(=O)cc(COc3cccc(NC(=O)c4ccccc4Cl)c3)nc2s1 |  | inconclusive: -31.1% [inhibitor]
Cc1cccn2c(=O)c(/C=C(\C#N)C(N)=O)c(N3CCN(c4ccccc4)CC3)nc12 | inconclusive: 35.5 µM [inhibitor, partial curve, poor fit] | 
CCOC(=O)C(NC(=O)/C=C/c1cc(Cl)c(OC)c(OC)c1)C(=O)OCC | inconclusive: 39.8 µM [inhibitor, single point] | 
COC1CCC12CCN(C(=O)c1ccco1)CC2 (configuration not stated) | inactive | 
Nc1c(-c2cccs2)cnc2c(-c3ccc(F)cc3)cnn12 | inconclusive: 28.2 µM [inhibitor, single point] | 
CCC1c2nccn2CCCN1C(=O)CCc1c(C)noc1C (configuration not stated) | inactive | 
Cc1nn(-c2ccc(F)cc2)c(C)c1CNC(=O)C1NCCc2[nH]cnc21 (configuration not stated) | active: 12.6 µM | 
Cc1cc(C)c2c(=O)cc(C(=O)Nc3onc4c3CC(C)CC4)oc2c1 (configuration not stated) | inactive | 
CCOc1ccc(-c2nc(S(=O)(=O)c3ccccc3)c(N3CCC(C(N)=O)CC3)o2)cc1 | inconclusive: 22.4 µM [inhibitor, partial curve, poor fit] | 
Cc1ccc(-c2nc(C#N)c(N3CCN(C(=O)c4ccco4)CC3)o2)cc1 | inactive | 
COc1ccc2c(c1)OCCN(c1ccc(NC(=O)c3cccc(C)c3)cc1C(=O)O)C2 | inactive | 
Cc1noc(-c2cccn3c(CNC(=O)c4ccc(F)c(Cl)c4)nnc23)n1 | active: 14.1 µM | 
CC(C)c1noc(CSc2nc(-c3ccco3)nc3ccccc23)n1 | inactive | 
CCCC(=O)Nc1cccc(C(=O)NCCc2ccccc2)c1 | inactive | 
CCOC(=O)c1nc(Nc2ccc(Cl)cc2)c2c(C)noc2n1 | inconclusive: 2 µM [inhibitor, full curve, poor fit] | 
Cn1c(=O)c(C(=O)NC2CCOC3(CCOCC3)C2)nc2ccccc21 (configuration not stated) | inconclusive: 22.4 µM [inhibitor, single point] | 
CN1C(=O)c2cncnc2OCC1CNC(=O)Cc1cccc(Cl)c1 (configuration not stated) | inconclusive: 35.5 µM [inhibitor, single point] | 
COc1ccc(Cl)cc1-c1ccc2c(c1)C(=O)N1CCN(C(=O)c3ccco3)C[C@H]1C(=O)N2 | active: 35.5 µM | 
COc1cc(F)ccc1-c1ccnc2nc(Cc3ccc(F)cc3)nn12 | active: 28.2 µM | 
CC(=O)Nc1cccc(C(C)NC(=O)NC(C)c2cccc(F)c2)c1 (configuration not stated) | inactive | 

Structure (SMILES) | Potency | activity change, negative = inhibition
CCOC(=O)c1ccccc1NC(=O)CN1C(=O)NC2(CCOCC2)C1=O | inconclusive: 31.6 µM [inhibitor, partial curve, poor fit] | 
COc1ccc([C@H]2C[C@@H](O)[C@@H](O)[C@@H]2NC(=O)c2ccccn2)cc1 | inconclusive: 31.6 µM [inhibitor, partial curve, poor fit] | 
COc1cccc(CNC(=O)Cn2ccn3nc(-c4ccccc4)c(CO)c3c2=O)c1OC | inconclusive: 35.5 µM [inhibitor, single point] | 
COCC1CN(C(C)=O)CC12CCN(Cc1ccc(Cl)c(F)c1)CC2 (configuration not stated) | inconclusive: 31.6 µM [inhibitor, partial curve, poor fit] | 
Cc1ncsc1C1N(C2CCN(Cc3cn(C)c4ccccc34)CC2)C(=O)C12CCCC2 (configuration not stated) | inactive | 
COc1cc(-c2ccnc3nc(CCc4ccccc4)nn23)cc(OC)c1OC | active: 14.1 µM | 
CC(=O)Nc1c(-c2ccccc2)c(C)nn1-c1ccc(C(=O)NCc2ccccc2)cc1 | inactive | 
CCc1nc2c(c(-c3ccc(Cl)cc3)n1)CCN(Cc1ccc(C#N)cc1)CC2 | inconclusive: 28.2 µM [inhibitor, single point] | 
CC(=O)N1CC2(CCN(c3nc(C)cc(C(=O)O)n3)CC2)CC1C(=O)O (configuration not stated) | inconclusive: 15.8 µM [inhibitor, partial curve, poor fit] | 
CCOc1ccc(N/C=C/C(=O)c2cc(C)ccc2C)cc1 | inactive | 
O=C(c1ccc2cc[nH]c2c1)N1CCC2(CC1)CC(Cc1cccc(F)c1)CCO2 (configuration not stated) | inconclusive: 11.2 µM [inhibitor, partial curve] | 
O=C(NC1CC1)C1CCN(C(=O)c2ccc(Cl)cc2Cl)CC1 | inactive | 
c1ccc(-n2cc(CN3CCCCC3c3ccccn3)nn2)cc1 (configuration not stated) | active: 28.2 µM | 
COc1cccc(CC(=O)NCc2nnc3cc(-c4nc(C5CC5)no4)ccn23)c1 | inconclusive: 31.6 µM [inhibitor, partial curve, poor fit] | 
CCC(C(=O)OC)n1nnc2sc(-c3ccccc3)cc2c1=O (configuration not stated) | inconclusive: 31.6 µM [inhibitor, partial curve, poor fit] | 
N#Cc1c(N2CCN(C(=O)C(=O)N3CCCC3)CC2)nc(-c2ccco2)c2c1CCCC2 | inconclusive: 14.1 µM [inhibitor, partial curve, poor fit] | 
COc1ccc(Nc2ncc(-c3cccnc3)c3c2OCC3)cc1 | inconclusive: 35.5 µM [inhibitor, partial curve] | 
O=S(=O)(Nc1cccc(-c2ccc(N3CCOCC3)nn2)c1)c1cc(C(F)(F)F)ccc1Cl |  | inconclusive: -38.2% [inhibitor]
O=C(C1CCCC1)N1CCc2nc(-c3ccccc3)nc(-c3ccc(Cl)cc3)c2C1 | inconclusive: 28.2 µM [inhibitor, single point] | 
COc1ccc(OC)c(-c2noc(N3CCN(c4cc(Cl)ccc4C)CC3)n2)c1 | inconclusive: 8.91 µM [inhibitor, partial curve, poor fit] | 
CC(C)CCn1nc(C(=O)OC/C(O)=C(\C#N)c2nc3ccccc3[nH]2)c2ccccc2c1=O | inactive | 
O=C1NCCCCCN(Cc2cccnc2)[C@@H]2CN(Cc3cccc(F)c3)CC[C@@H]12 | inconclusive: 25.1 µM [inhibitor, partial curve, poor fit] | 
Cc1nc(C)c(C(=O)N2CCC[C@H](n3c(=O)n(Cc4ccccc4)c4cccnc43)C2)s1 | inactive | 

Structure (SMILES) | Potency | activity change, negative = inhibition
CCC1CCCCN1CCCNC(=O)c1ccc2c(c1)sc1nc(-c3ccc(F)cc3)cn12 (configuration not stated) | inconclusive: 31.6 µM [inhibitor, partial curve, poor fit] | 
O=C1CC(c2ccc3c(c2)OCO3)c2ncn(-c3cccc(C(F)(F)F)c3)c2N1 (configuration not stated) | inconclusive: 25.1 µM [inhibitor, partial curve, poor fit] | 
CC(C)CNc1ccc2nnc(-c3ccc(F)cn3)n2n1 | active: 31.6 µM | 
COc1cccc(C(=O)c2sc(Nc3ccc(F)c(Cl)c3)nc2N)c1 | inactive | 
Cc1noc(C)c1C(=O)N1CCN(C2CCNCC2)C(=O)C1 | inconclusive: 100 µM [inhibitor, partial curve, poor fit] | 
Cc1ccc(C2=NN(C(=O)CCl)C(c3ccco3)C2)o1 (configuration not stated) | inconclusive: 31.6 µM [inhibitor, partial curve, poor fit] | 
Cc1[nH]c2ccccc2c1C(c1ccc(Br)o1)c1c(C)[nH]c2ccccc12 | inconclusive: 20 µM [inhibitor, partial curve, poor fit] | 
Cc1noc([C@@H]2CC(F)(F)CN2C(=O)c2nn(C)c3ccccc23)n1 | inconclusive: 14.1 µM [inhibitor, partial curve] | 
Cc1nc2cc(NC(C(=O)Nc3ccc(F)cc3)c3ccccc3)ccc2o1 (configuration not stated) | inconclusive: 28.2 µM [inhibitor, partial curve, poor fit] | 
CCc1ccccc1NC(=O)C1CCCN(c2cnccn2)C1 (configuration not stated) | inconclusive: 28.2 µM [inhibitor, partial curve, poor fit] | 
O=C([C@@H]1C[C@H](Oc2cccnc2)CN1C(=O)c1cc2ccccc2[nH]1)N1CCCC1 | inconclusive: 25.1 µM [inhibitor, single point] | 
Cc1ccccc1CN1CC[C@H](c2nc3ncccc3[nH]2)C1 | inconclusive: 31.6 µM [inhibitor, single point] | 
O=C1[C@@H]2C[C@@H](CN2Cc2ccc3ccccc3n2)Oc2ccccc2N1Cc1ccccc1 | inconclusive: 17.8 µM [inhibitor, partial curve] | 
O=C1CCCC2=C1C(c1cccc(O)c1)c1c(nc(SCc3ccccc3F)[nH]c1=O)N2 (configuration not stated) | inactive | 
COc1ccc(C2(C(=O)N3CCC4(CC3)C(OC)CN4c3cccc(F)c3)CC2)cc1 (configuration not stated) | inactive | 
CCn1c(CO)nnc1C1CC(NC(=O)c2oc3cc(OC)ccc3c2C)C1 (configuration not stated) | active: 28.2 µM | 
CCOC(=O)c1ccccc1NC(=O)CCc1nc(-c2ccc(C)cc2)no1 | inconclusive: 39.8 µM [inhibitor, single point] | 
CC(Sc1oc(-c2cccs2)nc1S(=O)(=O)c1ccccc1)c1ccccc1 (configuration not stated) | inconclusive: 25.1 µM [inhibitor, single point] | 
Cc1noc2c(-c3cn[nH]c3)cc(-c3cccc(C(F)(F)F)c3)nc12 | inactive | 
O=C1c2ccccc2-c2onc3c(NCCO)cc(NC4CCCCC4)c1c23 | inconclusive: 14.1 µM [inhibitor, partial curve, poor fit] | 
COc1ccc(N2CCN(c3csc4ccccc4c3=O)CC2)cc1 | inconclusive: 15.8 µM [inhibitor, partial curve, poor fit] | 
